# Experimental data reported in the supplement of paper PMC8728848.
# Some of the results follow.
# B1: Pbx1 (Cryptococcus neoformans) (protein)
# chain: ATTKCLVSGDQDSINNALALGGEGTTVTLCPGSVHRLNSSIIFTAPSQTLTTLGNPKDRNRAMLVVDGEDLACAIRADCKQCSHAMIRSLVIDGNRPQLLRIPKGDALIEVGNAESQTVRDCKLYEPRGWSALHFREGDERQCRFGHIVDNEIGPCGEEWDDEYDSMDETKPLWGNPRADGISLACKDSIVERNVVYDATDGAIVLFGSAGSTVKNNHVYARTRVILGGINLVDYEPWDGDYTNVKVHHNHLYALGRYFKVGIVIGPASWSDDTESVVHSASVTDNEFSGGYWGYGIVVASAKNFEVLRNKVIWDGEQGVARFSGVPGSRCPKAPENGKPTAFLINRGSAKGIFQDDFVNGEVQHIICLNPDQDPPYKPWRFRDSPEAIAAKQAENPTANSAFDSRIAEALVSYQMSLLNSMDAMTQKVEHLTNPIVDDALPFVHEHERAEADKKARQEASRKEKESGNKDVDMLNVKVEELEKSGRRLKKALDGLKSDFEGLSGRLKKSADENKPIIETIFVTSQNLLLGATSQQN
# Tests used:
# Assay in all cases: glycan array binding signal (z-score within array); higher = stronger binding
# Settings in all cases: glycan notation: IUPAC condensed, linker removed
# Fuc(a1-2)Gal = molecular target: Fuc(a1-2)Gal
# Method in brief: (§1)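 Negative Z-scores can be read as non-binding. The Z-score is calculated within each array and then averaged across arrays of one protein sequence at different concentrations or buffers and across linkers. Arrays, 3228 in all, were curated from the Consortium for Functional Glycomics database and kept only where the protein sequence was available.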
# Fuc(a1-2)Gal(b1-3)GalNAc = molecular target: Fuc(a1-2)Gal(b1-3)GalNAc
# Method in brief: as §1
# [1] = molecular target: Fuc(a1-2)Gal(b1-3)GalNAc(a1-3)[Fuc(a1-2)]Gal(b1-4)Glc
# Method in brief: as §1
# [2] = molecular target: Fuc(a1-2)Gal(b1-3)GalNAc(a1-3)[Fuc(a1-2)]Gal(b1-4)GlcNAc
# Method in brief: as §1
# [3] = molecular target: Fuc(a1-2)Gal(b1-3)GalNAc(b1-3)Gal
# Method in brief: as §1
# [4] = molecular target: Fuc(a1-2)Gal(b1-3)GalNAc(b1-3)Gal(a1-4)Gal(b1-4)Glc
# Method in brief: as §1
# [5] = molecular target: Fuc(a1-2)Gal(b1-3)GalNAc(b1-4)[Neu5Ac(a2-3)]Gal(b1-4)Glc
# Method in brief: as §1
# Fuc(a1-2)Gal(b1-3)GlcNAc = molecular target: Fuc(a1-2)Gal(b1-3)GlcNAc
# Method in brief: as §1
# [6] = molecular target: Fuc(a1-2)Gal(b1-3)GlcNAc(b1-2)Man(a1-3)[Fuc(a1-2)Gal(b1-3)GlcNAc(b1-2)Man(a1-6)]Man(b1-4)GlcNAc(b1-4)GlcNAc
# Method in brief: as §1
# [7] = molecular target: Fuc(a1-2)Gal(b1-3)GlcNAc(b1-2)Man(a1-3)[Fuc(a1-2)Gal(b1-3)GlcNAc(b1-2)Man(a1-6)]Man(b1-4)GlcNAc(b1-4)[Fuc(a1-6)]GlcNAc
# Method in brief: as §1
# [8] = molecular target: Fuc(a1-2)Gal(b1-3)GlcNAc(b1-3)Gal(b1-4)Glc
# Method in brief: as §1
# [9] = molecular target: Fuc(a1-2)Gal(b1-3)GlcNAc(b1-3)GalNAc
# Method in brief: as §1
# [10] = molecular target: Fuc(a1-2)Gal(b1-3)GlcNAc(b1-3)[Fuc(a1-2)Gal(b1-3)GlcNAc(b1-6)]GalNAc
# Method in brief: as §1
# [11] = molecular target: Fuc(a1-2)Gal(b1-3)GlcNAc(b1-3)[Gal(b1-4)GlcNAc(b1-6)]Gal(b1-4)Glc
# Method in brief: as §1
# [12] = molecular target: Fuc(a1-2)Gal(b1-3)GlcNAc(b1-3)[Neu5Ac(a2-6)Gal(b1-4)GlcNAc(b1-6)]Gal(b1-4)Glc
# Method in brief: as §1
# [13] = molecular target: Fuc(a1-2)Gal(b1-3)GlcNAc6S
# Method in brief: as §1
# [14] = molecular target: Fuc(a1-2)Gal(b1-3)[Fuc(a1-4)]GlcNAc
# Method in brief: as §1
# [15] = molecular target: Fuc(a1-2)Gal(b1-3)[Fuc(a1-4)]GlcNAc(b1-2)Man(a1-3)[Fuc(a1-2)Gal(b1-3)[Fuc(a1-4)]GlcNAc(b1-2)Man(a1-3)]Man(b1-4)GlcNAc(b1-4)GlcNAc
# Method in brief: as §1
# [16] = molecular target: Fuc(a1-2)Gal(b1-3)[Fuc(a1-4)]GlcNAc(b1-2)Man(a1-3)[Fuc(a1-2)Gal(b1-3)[Fuc(a1-4)]GlcNAc(b1-2)Man(a1-6)]Man(b1-4)GlcNAc(b1-4)[Fuc(a1-6)]GlcNAc(b1-4)[Fuc(a1-6)]GlcNAc
# Method in brief: as §1
# [17] = molecular target: Fuc(a1-2)Gal(b1-3)[Fuc(a1-4)]GlcNAc(b1-3)[Fuc(a1-3)[Gal(b1-4)]GlcNAc(b1-6)]Gal(b1-4)Glc
# Method in brief: as §1
# [18] = molecular target: Fuc(a1-2)Gal(b1-3)[Fuc(a1-4)]GlcNAc(b1-3)[Gal(b1-4)GlcNAc(b1-6)]Gal(b1-4)Glc
# Method in brief: as §1
# Fuc(a1-2)Gal(b1-4)Glc = molecular target: Fuc(a1-2)Gal(b1-4)Glc
# Method in brief: as §1
# Fuc(a1-2)Gal(b1-4)Glc6S = molecular target: Fuc(a1-2)Gal(b1-4)Glc6S
# Method in brief: as §1
# Fuc(a1-2)Gal(b1-4)GlcNAc = molecular target: Fuc(a1-2)Gal(b1-4)GlcNAc
# Method in brief: as §1
# [19] = molecular target: Fuc(a1-2)Gal(b1-4)GlcNAc(b1-2)Man
# Method in brief: as §1
# [20] = molecular target: Fuc(a1-2)Gal(b1-4)GlcNAc(b1-2)Man(a1-3)[Fuc(a1-2)Gal(b1-4)GlcNAc(b1-2)Man(a1-6)]Man(b1-4)GlcNAc(b1-4)GlcNAc
# Method in brief: as §1
# [21] = molecular target: Fuc(a1-2)Gal(b1-4)GlcNAc(b1-2)Man(a1-3)[Fuc(a1-2)Gal(b1-4)GlcNAc(b1-2)Man(a1-6)]Man(b1-4)GlcNAc(b1-4)[Fuc(a1-6)]GlcNAc
# Method in brief: as §1
# [22] = molecular target: Fuc(a1-2)Gal(b1-4)GlcNAc(b1-2)[Fuc(a1-2)Gal(b1-4)GlcNAc(b1-4)]Man(a1-3)[Fuc(a1-2)Gal(b1-4)GlcNAc(b1-2)Man(a1-6)]Man(b1-4)GlcNAc(b1-4)GlcNAc
# Method in brief: as §1
# [23] = molecular target: Fuc(a1-2)Gal(b1-4)GlcNAc(b1-3)Gal(b1-4)GlcNAc
# Method in brief: as §1
# [24] = molecular target: Fuc(a1-2)Gal(b1-4)GlcNAc(b1-3)Gal(b1-4)GlcNAc(b1-2)Man(a1-3)[Fuc(a1-2)Gal(b1-4)GlcNAc(b1-3)Gal(b1-4)GlcNAc(b1-2)Man(a1-6)]Man(b1-4)GlcNAc(b1-4)GlcNAc
# Method in brief: as §1
binder,measurement,setting,value
B1,glycan array binding signal (z-score),Fuc(a1-2)Gal,-0.619
same,glycan array binding signal (z-score),Fuc(a1-2)Gal(b1-3)GalNAc,-0.331
same,glycan array binding signal (z-score),[1],0.561
same,glycan array binding signal (z-score),[2],0.2
same,glycan array binding signal (z-score),[3],-0.1
same,glycan array binding signal (z-score),[4],-0.792
same,glycan array binding signal (z-score),[5],-0.657
same,glycan array binding signal (z-score),Fuc(a1-2)Gal(b1-3)GlcNAc,-0.46
same,glycan array binding signal (z-score),[6],0.459
same,glycan array binding signal (z-score),[7],0.209
same,glycan array binding signal (z-score),[8],-0.04
same,glycan array binding signal (z-score),[9],0.44
same,glycan array binding signal (z-score),[10],0.579
same,glycan array binding signal (z-score),[11],-0.938
same,glycan array binding signal (z-score),[12],-0.045
same,glycan array binding signal (z-score),[13],1.1
same,glycan array binding signal (z-score),[14],-0.161
same,glycan array binding signal (z-score),[15],2.82
same,glycan array binding signal (z-score),[16],0.05
same,glycan array binding signal (z-score),[17],-0.395
same,glycan array binding signal (z-score),[18],0.086
same,glycan array binding signal (z-score),Fuc(a1-2)Gal(b1-4)Glc,-0.305
same,glycan array binding signal (z-score),Fuc(a1-2)Gal(b1-4)Glc6S,-0.641
same,glycan array binding signal (z-score),Fuc(a1-2)Gal(b1-4)GlcNAc,-0.749
same,glycan array binding signal (z-score),[19],-0.654
same,glycan array binding signal (z-score),[20],-0.038
same,glycan array binding signal (z-score),[21],-0.297
same,glycan array binding signal (z-score),[22],0.821
same,glycan array binding signal (z-score),[23],-0.188
same,glycan array binding signal (z-score),[24],0.745
